Binding data for twelve molecules are collected here from paper PMC5615199, “Structural Basis for EarP-Mediated Arginine Glycosylation of Translation Elongation Factor EF-P” (mBio, 2017).

To fix the notation:
B1: D13A^EarP, T25 hybrid (pKT25-D13A) (enzyme, UniProt Q88LS1 2-377)
chain: KATWDIFCSVVANYGDIGVTWRLARQLVAEHGLAVRLWVDDLNAFTPMCPGADATAAQQWQHGVDVRHWPAAWLPVAPADVVIGAFACQLPAAYVEAMRARPQPPLWLNLEYLSAEDWVEGCHGLPSPQPNGLRKVFFFPGFTDKTGGLLREGSLLARRDGFQQSAEARRAFLQGLGVDLVPGALLISLFAYENPQLGNWLDALATADQPCHLLVPQGRVVAGLSQWLGEGPLHVGDVRTRGALTVQVLPFVSQDDFDRLLWSCDFNAVRGEDSFVRAQWAGQPMLWHIYVQDENAHWEKLEAFLAHYRCGLSDDADAALLGLWRAWNMDFDMGQAWRAARQHWPELQQHARLWGARQAAQPDLATALVHFYRNSL
B2: D17A^EarP, T25 hybrid (pKT25-D17A) (enzyme, UniProt Q88LS1 2-377)
chain: KATWDIFCSVVDNYGAIGVTWRLARQLVAEHGLAVRLWVDDLNAFTPMCPGADATAAQQWQHGVDVRHWPAAWLPVAPADVVIGAFACQLPAAYVEAMRARPQPPLWLNLEYLSAEDWVEGCHGLPSPQPNGLRKVFFFPGFTDKTGGLLREGSLLARRDGFQQSAEARRAFLQGLGVDLVPGALLISLFAYENPQLGNWLDALATADQPCHLLVPQGRVVAGLSQWLGEGPLHVGDVRTRGALTVQVLPFVSQDDFDRLLWSCDFNAVRGEDSFVRAQWAGQPMLWHIYVQDENAHWEKLEAFLAHYRCGLSDDADAALLGLWRAWNMDFDMGQAWRAARQHWPELQQHARLWGARQAAQPDLATALVHFYRNSL
B3: E273A^EarP, T25 hybrid (pKT25-E273A) (enzyme, UniProt Q88LS1 2-377)
chain: KATWDIFCSVVDNYGDIGVTWRLARQLVAEHGLAVRLWVDDLNAFTPMCPGADATAAQQWQHGVDVRHWPAAWLPVAPADVVIGAFACQLPAAYVEAMRARPQPPLWLNLEYLSAEDWVEGCHGLPSPQPNGLRKVFFFPGFTDKTGGLLREGSLLARRDGFQQSAEARRAFLQGLGVDLVPGALLISLFAYENPQLGNWLDALATADQPCHLLVPQGRVVAGLSQWLGEGPLHVGDVRTRGALTVQVLPFVSQDDFDRLLWSCDFNAVRGADSFVRAQWAGQPMLWHIYVQDENAHWEKLEAFLAHYRCGLSDDADAALLGLWRAWNMDFDMGQAWRAARQHWPELQQHARLWGARQAAQPDLATALVHFYRNSL
B4: R271A^EarP, T25 hybrid (pKT25-R271A) (enzyme, UniProt Q88LS1 2-377)
chain: KATWDIFCSVVDNYGDIGVTWRLARQLVAEHGLAVRLWVDDLNAFTPMCPGADATAAQQWQHGVDVRHWPAAWLPVAPADVVIGAFACQLPAAYVEAMRARPQPPLWLNLEYLSAEDWVEGCHGLPSPQPNGLRKVFFFPGFTDKTGGLLREGSLLARRDGFQQSAEARRAFLQGLGVDLVPGALLISLFAYENPQLGNWLDALATADQPCHLLVPQGRVVAGLSQWLGEGPLHVGDVRTRGALTVQVLPFVSQDDFDRLLWSCDFNAVAGEDSFVRAQWAGQPMLWHIYVQDENAHWEKLEAFLAHYRCGLSDDADAALLGLWRAWNMDFDMGQAWRAARQHWPELQQHARLWGARQAAQPDLATALVHFYRNSL
B5: Y291A^EarP, T25 hybrid (pKT25-Y291A) (enzyme, UniProt Q88LS1 2-377)
chain: KATWDIFCSVVDNYGDIGVTWRLARQLVAEHGLAVRLWVDDLNAFTPMCPGADATAAQQWQHGVDVRHWPAAWLPVAPADVVIGAFACQLPAAYVEAMRARPQPPLWLNLEYLSAEDWVEGCHGLPSPQPNGLRKVFFFPGFTDKTGGLLREGSLLARRDGFQQSAEARRAFLQGLGVDLVPGALLISLFAYENPQLGNWLDALATADQPCHLLVPQGRVVAGLSQWLGEGPLHVGDVRTRGALTVQVLPFVSQDDFDRLLWSCDFNAVRGEDSFVRAQWAGQPMLWHIAVQDENAHWEKLEAFLAHYRCGLSDDADAALLGLWRAWNMDFDMGQAWRAARQHWPELQQHARLWGARQAAQPDLATALVHFYRNSL
B6: Q255A^EarP, T25 hybrid (pKT25-Q255A) (enzyme, UniProt Q88LS1 2-377)
chain: KATWDIFCSVVDNYGDIGVTWRLARQLVAEHGLAVRLWVDDLNAFTPMCPGADATAAQQWQHGVDVRHWPAAWLPVAPADVVIGAFACQLPAAYVEAMRARPQPPLWLNLEYLSAEDWVEGCHGLPSPQPNGLRKVFFFPGFTDKTGGLLREGSLLARRDGFQQSAEARRAFLQGLGVDLVPGALLISLFAYENPQLGNWLDALATADQPCHLLVPQGRVVAGLSQWLGEGPLHVGDVRTRGALTVQVLPFVSADDFDRLLWSCDFNAVRGEDSFVRAQWAGQPMLWHIYVQDENAHWEKLEAFLAHYRCGLSDDADAALLGLWRAWNMDFDMGQAWRAARQHWPELQQHARLWGARQAAQPDLATALVHFYRNSL
B7: D274A^EarP, T25 hybrid (pKT25-D274A) (enzyme, UniProt Q88LS1 2-377)
chain: KATWDIFCSVVDNYGDIGVTWRLARQLVAEHGLAVRLWVDDLNAFTPMCPGADATAAQQWQHGVDVRHWPAAWLPVAPADVVIGAFACQLPAAYVEAMRARPQPPLWLNLEYLSAEDWVEGCHGLPSPQPNGLRKVFFFPGFTDKTGGLLREGSLLARRDGFQQSAEARRAFLQGLGVDLVPGALLISLFAYENPQLGNWLDALATADQPCHLLVPQGRVVAGLSQWLGEGPLHVGDVRTRGALTVQVLPFVSQDDFDRLLWSCDFNAVRGEASFVRAQWAGQPMLWHIYVQDENAHWEKLEAFLAHYRCGLSDDADAALLGLWRAWNMDFDMGQAWRAARQHWPELQQHARLWGARQAAQPDLATALVHFYRNSL
B8: F258A^EarP, T25 hybrid (pKT25-F258A) (enzyme, UniProt Q88LS1 2-377)
chain: KATWDIFCSVVDNYGDIGVTWRLARQLVAEHGLAVRLWVDDLNAFTPMCPGADATAAQQWQHGVDVRHWPAAWLPVAPADVVIGAFACQLPAAYVEAMRARPQPPLWLNLEYLSAEDWVEGCHGLPSPQPNGLRKVFFFPGFTDKTGGLLREGSLLARRDGFQQSAEARRAFLQGLGVDLVPGALLISLFAYENPQLGNWLDALATADQPCHLLVPQGRVVAGLSQWLGEGPLHVGDVRTRGALTVQVLPFVSQDDADRLLWSCDFNAVRGEDSFVRAQWAGQPMLWHIYVQDENAHWEKLEAFLAHYRCGLSDDADAALLGLWRAWNMDFDMGQAWRAARQHWPELQQHARLWGARQAAQPDLATALVHFYRNSL
B9: F252A^EarP, T25 hybrid (pKT25-F252A) (enzyme, UniProt Q88LS1 2-377)
chain: KATWDIFCSVVDNYGDIGVTWRLARQLVAEHGLAVRLWVDDLNAFTPMCPGADATAAQQWQHGVDVRHWPAAWLPVAPADVVIGAFACQLPAAYVEAMRARPQPPLWLNLEYLSAEDWVEGCHGLPSPQPNGLRKVFFFPGFTDKTGGLLREGSLLARRDGFQQSAEARRAFLQGLGVDLVPGALLISLFAYENPQLGNWLDALATADQPCHLLVPQGRVVAGLSQWLGEGPLHVGDVRTRGALTVQVLPAVSQDDFDRLLWSCDFNAVRGEDSFVRAQWAGQPMLWHIYVQDENAHWEKLEAFLAHYRCGLSDDADAALLGLWRAWNMDFDMGQAWRAARQHWPELQQHARLWGARQAAQPDLATALVHFYRNSL
B10: F191A^EarP, T25 hybrid (pKT25-F191A) (enzyme, UniProt Q88LS1 2-377)
chain: KATWDIFCSVVDNYGDIGVTWRLARQLVAEHGLAVRLWVDDLNAFTPMCPGADATAAQQWQHGVDVRHWPAAWLPVAPADVVIGAFACQLPAAYVEAMRARPQPPLWLNLEYLSAEDWVEGCHGLPSPQPNGLRKVFFFPGFTDKTGGLLREGSLLARRDGFQQSAEARRAFLQGLGVDLVPGALLISLAAYENPQLGNWLDALATADQPCHLLVPQGRVVAGLSQWLGEGPLHVGDVRTRGALTVQVLPFVSQDDFDRLLWSCDFNAVRGEDSFVRAQWAGQPMLWHIYVQDENAHWEKLEAFLAHYRCGLSDDADAALLGLWRAWNMDFDMGQAWRAARQHWPELQQHARLWGARQAAQPDLATALVHFYRNSL
B11: Y193A^EarP, T25 hybrid (pKT25-Y193A) (enzyme, UniProt Q88LS1 2-377)
chain: KATWDIFCSVVDNYGDIGVTWRLARQLVAEHGLAVRLWVDDLNAFTPMCPGADATAAQQWQHGVDVRHWPAAWLPVAPADVVIGAFACQLPAAYVEAMRARPQPPLWLNLEYLSAEDWVEGCHGLPSPQPNGLRKVFFFPGFTDKTGGLLREGSLLARRDGFQQSAEARRAFLQGLGVDLVPGALLISLFAAENPQLGNWLDALATADQPCHLLVPQGRVVAGLSQWLGEGPLHVGDVRTRGALTVQVLPFVSQDDFDRLLWSCDFNAVRGEDSFVRAQWAGQPMLWHIYVQDENAHWEKLEAFLAHYRCGLSDDADAALLGLWRAWNMDFDMGQAWRAARQHWPELQQHARLWGARQAAQPDLATALVHFYRNSL
B12: S275A^EarP, T25 hybrid (pKT25-S275A) (enzyme, UniProt Q88LS1 2-377)
chain: KATWDIFCSVVDNYGDIGVTWRLARQLVAEHGLAVRLWVDDLNAFTPMCPGADATAAQQWQHGVDVRHWPAAWLPVAPADVVIGAFACQLPAAYVEAMRARPQPPLWLNLEYLSAEDWVEGCHGLPSPQPNGLRKVFFFPGFTDKTGGLLREGSLLARRDGFQQSAEARRAFLQGLGVDLVPGALLISLFAYENPQLGNWLDALATADQPCHLLVPQGRVVAGLSQWLGEGPLHVGDVRTRGALTVQVLPFVSQDDFDRLLWSCDFNAVRGEDAFVRAQWAGQPMLWHIYVQDENAHWEKLEAFLAHYRCGLSDDADAALLGLWRAWNMDFDMGQAWRAARQHWPELQQHARLWGARQAAQPDLATALVHFYRNSL

No constants are given. Whether binding was seen depends on the method and setting. Some entries that bind do so weakly or less than the wild type.

For one assay, the target named is T1, EF-PPpu, translation elongation factor EF-P from Pseudomonas putida, T18 hybrid (pUT18C-efpPpu) (Pseudomonas putida) (UniProt Q88LS0).
T1 sequence: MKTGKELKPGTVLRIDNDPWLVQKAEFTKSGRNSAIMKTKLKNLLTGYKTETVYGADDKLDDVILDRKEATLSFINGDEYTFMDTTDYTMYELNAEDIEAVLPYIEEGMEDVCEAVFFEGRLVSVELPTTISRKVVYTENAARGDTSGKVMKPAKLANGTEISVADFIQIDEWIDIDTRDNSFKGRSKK
The experiment in a line: two-hybrid; bacterial adenylate cyclase two-hybrid (T18/T25) in E. coli BTH101, colony colour on LB X-Gal-IPTG screening plates, 48 h at 30°C.
B1: the binding result is on record as “binds”. On the same count and under the same terms, in the case of B2 it was “binds”. Same read-out and setting: the entry for B3 is “binds”.

For the next assay, the target named is T1, EF-PPpu, translation elongation factor EF-P from Pseudomonas putida, T18 hybrid (pUT18C-efpPpu) (Pseudomonas putida). In words: two-hybrid; bacterial adenylate cyclase two-hybrid (T18/T25) in E. coli BTH101, beta-galactosidase activity in Miller units from liquid LB cultures with 0.5 mM IPTG, 30°C, 42 h; T25 and T18 alone <60 MU define the threshold.
On to B4, for which the binding entry is on record as “binds”. Still for that read-out and setting: in the case of B5 it was “binds”; in that of B6, “no binding (tested: <60 MU (threshold of the assay))”. Still for that read-out and setting: the entry for B7 is “no binding (tested: <60 MU (threshold of the assay))”. In the case of B8, the binding result was “no binding (tested: <60 MU (threshold of the assay))”. B9: the binding result is “no binding (tested: <60 MU (threshold of the assay))”.

Consider B10, for which the binding result is on record as “no binding (tested: <60 MU (threshold of the assay))”. On the same count and under the same terms, in the case of B11 it was “no binding (tested: <60 MU (threshold of the assay))”. Still for that read-out and setting: the entry for B12 is “no binding (tested: <60 MU (threshold of the assay))”.
